# In PubChem BioAssay (NCATS):
# “And” between values parts separate entries of the source, which are not always exact repeats. Equal entries are not always repeated. This list was built around the results that the source calls inconclusive (neither active nor inactive); the mix of calls is not that of the screen. Where the call is inconclusive, the potency comes from a doubtful curve fit. The source holds several records for some structures; these can differ, active in one and inactive in another. The source made the active and inactive calls. Calls follow the shape of the dose curve; as a rule, active = well fitted activation curve with a large enough effect; inconclusive = small, poorly fitted or top-dose-only effect; inactive = no such curve, though single readings can be large or run the other way.
# Biological target: Cellular tumor antigen p53 (Homo sapiens) (UniProt P04637)
# Test: Primary qHTS for small molecule compounds that upregulate eGFP-tagged delta133p53alpha (in N-terminal) cells. (AID 2060322);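 also: cells pre-induced with doxycycline then dosed without doxycycline; nearly all actives have a fitted effect of over 75% in size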;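 as to activation: series mostly up to about 56 µM; 0% = DMSO vehicle and 100% = reference activator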
# Conditions: NCI-H358 eGFP-delta133p53alpha fluorescence, 24 h; activation: stronger effect = higher value
# Source text: Assay Development and Screening Technology
# National Center for Advancing Translational Sciences (NCATS),
# National Institute of Health (NIH), Rockville, Maryland
# Cellular senescence (CS) is one of the hallmarks of aging and age-related diseases. Senescent cells are characterized by an irreversible growth arrest, an increase in senescence-associated beta-galactosidase (SA-beta-gal) activity and p16INK4a expression, an activation of the DNA damage response pathways, and the emergence of a senescence-associated secretory phenotype (SASP).
# Delta133p53alpha, a human/primate-specific p53 protein isoform, delays or inhibits the induction of CS and SASP in various types of human cells, including progeria-derived fibroblasts, primary normal astrocytes, and CD8+ T lymphocytes. Induction of delta133p53alpha with small molecule compounds may provide therapeutic opportunities for inhibition of senescence/SASP-associated pathologies in progeria syndromes, astrocyte-mediated neuroprotection in neurodegenerative diseases, and possibly prevention and treatment of a wider range of senescence- and aging-associated diseases.
# Here we report the development and validation of a cell-based quantitative high throughput screening (qHTS) assay in 1,536-well format. This qHTS assay uses the NCI-H358 cell line with doxycycline-inducible expression of enhanced green fluorescent protein (eGFP)-tagged delta133p53alpha, which allows efficient and highly quantitative measurement of the protein levels.
# PROTOCOL TABLE (as described by Inglese J, Shamu CE and Guy RK. 2007)
# SEQUENCE No. (e.g., 1, 2, 3, etc.); […] (e.g., Cells, Incubation, Reagent, etc.); VALUE; DESCRIPTION.
# 1; Cells; 4uL; 800 doxycycline treated cells / well in doxycycline-free media, 1536-well black, clear-bottom low base Aurora microplates.
# 2; Compounds; 23 nL; Kalypsis pin tool (Wako) equipped with 1536-well pin heads, 5-azacytidine positive control.
# 3; Incubation; 24 hr; 37C, 5% CO2; 95% relative humidity.
# 4; Aspiration; 1x; BioTek EL406 washer dispenser (Agilent).
# 5; Fixing; 3.5% paraformaldehyde, BioTek EL406 washer dispenser (Agilent).
# 6; Washing; 1x PBS; BioTek EL406 washer dispenser (Agilent).
# 7; Nuclei staining; 1:1000 dilution of Hoechst 33342 (Thermofisher), BioTek EL406 washer dispenser (Agilent).
# 8; Incubation; 20 min; in the dark at room temperature.
# 9; Washing; 2x, 1x PBS (ThermoFisher), BioTek EL406 washer dispenser (Agilent).
# 10; Reagent; 10 uL; 1x PBS per well, sealed with clear adhesive tape.
# NOTES (numbers refer to sequence numbers above).
# 1. NCI-H358 cells expressing eGFP-tagged delta133p53alpha were grown in T75 culture flasks and treated with doxycycline for 24h, at 10 ng/ml for eGFP-D133p53a cells (N-terminal cell) and 100 ng/ml for D133p53a-eGFP cells (C-terminal cells). Cells were trypsinized, counted using a Counted 3 Automated Cell Counter (Thermo Fisher), and diluted to a concentration of 200,000 cells/ml. A Multidrop Combi Reagent Dispenser (ThermoFisher) was used to dispense 800 cells/well in […] of doxycycline-free media, into 1536-well black/clear bottom low base plates (AuroraMicroplates).
# 2. After plating cells, 23 nl of compound library, DMSO vehicle control or positive control (5-azacytidine) were transferred by Pin Tool (Wako). The plate map layout was the same for each plate: (column 1) non-doxycycline treated cells + DMSO vehicle control; (column 2) doxycycline treated cells + DMSO vehicle control baseline; (column 3) doxycycline treated cells + positive control 57.5 uM final concentration 5-azacytidine; (column 4) doxycycline treated cells + serial dilution of 5-azacytidine, 16-point 1:2 titration spanning 1.8 nM to […] final concentration; (columns 5-48) doxycycline treated cells + titration of library compounds.
# 3. Cells were incubated at 37 °C, 5 % CO2, 95% RH with breathable metal lid for 24h.
# 4-10. […] After two washes, 10 ul of 1X PBS (Thermo Fisher) was dispensed to each well. Clear adhesive plate seals (VWR) were applied and plates stored at 4 °C.
# 11. […]
# Potency is read from the fitted curve at half-maximal effect; tags tell the direction and shape of the fitted curve.
# UniProt P04637, sequence (P04637 whole entry, looked up): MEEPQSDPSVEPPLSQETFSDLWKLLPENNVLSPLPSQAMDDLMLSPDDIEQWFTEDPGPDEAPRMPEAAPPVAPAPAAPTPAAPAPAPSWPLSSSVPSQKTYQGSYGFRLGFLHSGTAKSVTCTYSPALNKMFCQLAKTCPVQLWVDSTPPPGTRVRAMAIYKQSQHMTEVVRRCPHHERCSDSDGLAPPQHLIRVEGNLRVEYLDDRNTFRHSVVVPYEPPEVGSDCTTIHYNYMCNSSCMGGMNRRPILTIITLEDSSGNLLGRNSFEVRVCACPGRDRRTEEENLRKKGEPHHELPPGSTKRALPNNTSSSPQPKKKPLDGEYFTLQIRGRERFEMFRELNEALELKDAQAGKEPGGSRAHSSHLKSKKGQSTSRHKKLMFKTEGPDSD
SMILES,activation,Potency
CCn1cc(C(=O)O)c(=O)c2cnc(N3CCCC3)nc21,inactive: 3.95%,
O=C(O)C1CCCN(CCC=C(c2ccccc2)c2ccccc2)C1 (stereo not given),inconclusive: 30.2% [activator] and inactive: -10.3%,
C=C1CC(=O)C2OC2(C)CC2OC(=O)C(=C)C2C(O)C1OC(=O)/C(C)=C\C (stereo not given),,active: 16.6 µM
O=C(NO)c1cnc(N2CCN(S(=O)(=O)c3ccc4ccccc4c3)CC2)nc1,,"inconclusive: 11.7 µM [activator, single point]"
Cc1ccccc1C(OCCN(C)C)c1ccccc1 (stereo not given),,"inconclusive: 2.46 µM [activator, full curve, poor fit]"
Cn1cc(-c2[nH]c3cc(NC(=O)[C@H](N)C4CCCCC4)cc4c3c2C=NNC4=O)cn1,,"inconclusive: 12.2 µM [activator, single point]"
COc1cc2c(cc1OC)C(=O)C(CC1CCN(Cc3ccccc3)CC1)C2 (stereo not given),,"inconclusive: 21.9 µM [activator, single point]"
Cc1ccc(NC(=O)C2(c3ccc4c(c3)OC(F)(F)O4)CC2)nc1-c1cccc(C(=O)O)c1,,active: 0.153 µM
CCCN1C[C@H](CSC)C[C@@H]2c3cccc4[nH]cc(c34)C[C@H]21,,"inconclusive: 21.9 µM [activator, single point]"
Cc1ccc(-n2nc(C(C)(C)C)cc2NC(=O)Nc2ccc(OCCN3CCOCC3)c3ccccc23)cc1,,"inconclusive: 19.5 µM [activator, single point]"
COC(=O)C1=CO[C@@H](O)[C@@H]2C(CO)=CC[C@H]12,inactive: 8.04%,"inconclusive: 0.012 µM [activator, full curve]"
CN1CCC(Nc2nc(Nc3ccc(Oc4ccccc4)cc3)c3c(=O)[nH]cc(Br)c3n2)CC1,,active: 10.7 µM
O=C(O)Cc1sc(-c2ccccc2)nc1-c1ccc(Cl)cc1,inactive: -17.6%,
CCOC(=O)[C@H](CCc1ccccc1)N[C@@H](C)C(=O)N(CC(=O)O)C1Cc2ccccc2C1,,"inconclusive: 17.4 µM [activator, single point]"
CC/C=C/CC1=C(CCCCC(CCC(=O)O)OC(C)=O)CCC1=O (stereo not given),,"inconclusive: 26.2 µM [activator, single point]"
CC(C)CCC[C@@H](C)[C@H]1CC[C@H]2[C@@H]3CC=C4C[C@@H](OC(=O)NCCN(C)C)CC[C@]4(C)[C@H]3CC[C@]12C,,"inconclusive: 37.9 µM [activator, single point]"
O=C(Nc1cc(C(F)(F)F)cc(C(F)(F)F)c1)c1cnc(Cl)nc1C(F)(F)F,,active: 30.1 µM
C=C[C@H]1C(O[C@@H]2O[C@H](CO)[C@@H](O)[C@H](O)[C@H]2O)OC=C2C(=O)N3CCc4c([nH]c5ccccc45)[C@H]3C[C@H]21 (stereo not given in full),,"inconclusive: 8.28 µM [activator, partial curve, poor fit]"
O=C(NC1CC1)c1cccc(-c2ccc3c(NC(=O)C4CC4)n[nH]c3c2)c1,,"inconclusive: 0.0306 µM [activator, full curve, poor fit]"

SMILES,activation,Potency
C=C1C(=O)O[C@@H]2/C=C(/C)CC3C=C(C[C@H](OC(=O)/C(C)=C\C)[C@@H]12)C(=O)O3 (stereo not given in full),,active: 11.7 µM
Cc1ccccc1-c1cc(N2CCN(C)CC2)ncc1N(C)C(=O)C(C)(C)c1cc(C(F)(F)F)cc(C(F)(F)F)c1,,"inconclusive: 21.3 µM [activator, single point]"
C=CC(C)(O)CC/C=C(/C)COC(=O)C(C)C1CCC(C)(C=C)O1 (stereo not given),inactive: 5.36%,
Cc1c(NC(=O)OC[C@@H]2COCCN2)cn2ncnc(Nc3ccc4c(cnn4Cc4cccc(F)c4)c3)c12,,"inconclusive: 19.3 µM [activator, partial curve, poor fit] and inconclusive: 30.1 µM [activator, single point] and inconclusive: 43.2 µM [activator, single point]"
COc1ccc2nc(-c3cc(OC)c(OC)c(OC)c3)cc(C(=O)NCC(=O)Nc3ccc(C(C)=O)cc3)c2c1,,"inconclusive: 23.9 µM [activator, partial curve]"
c1ccc(-c2nn3c(c2-c2ccnc4cc(OCCN5CCOCC5)ccc24)CCC3)nc1,,"inconclusive: 43.2 µM [activator, single point]"
O=C(CCCCCCC(=O)Nc1ccccc1)NO,inactive: 17.7% and inactive: 26.7%,"inconclusive: 13.8 µM [activator, partial curve, poor fit]"
Cc1nc2ccc(C(=O)N3CCC4(CC3)CC(=O)c3c(cnn3C(C)C)C4)cc2[nH]1,inactive: 23%,
CNc1ccc([N+](=O)[O-])c(Nc2ccc3[nH]ncc3c2)n1,,active: 10.7 µM
CN1C2CC(OC(=O)[C@H](CO)c3ccccc3)CC1C1OC12 (stereo not given in full),inactive: -3.28%,
COC(=O)[C@@H]1[C@H]2C[C@H]3c4[nH]c5ccccc5c4CCN3C[C@@H]2CC[C@@H]1O,,"inconclusive: 38.9 µM [activator, single point]"
O[C@@H](c1cc(C(F)(F)F)nc2c(C(F)(F)F)cccc12)[C@H]1CCCCN1,,"inconclusive: 27.6 µM [activator, single point]"
C=C1C(=O)O[C@@H]2C[C@H](C)C3=CC(=O)[C@H](O)[C@@]3(C)C[C@H]12,,active: 30.1 µM
CC1CCCC[C@H]2C(=O)C=C[C@H](O)[C@@H]2CC(=O)O1 (stereo not given in full),,active: 23.9 µM
CCN(CC)c1ccc(C(=C2C=CC(=[N+](CC)CC)C=C2)c2cc(S(=O)(=O)O)ccc2S(=O)(=O)[O-])cc1,inactive: -8.47%,
OC(CN1CCC(Cc2ccc(F)cc2)CC1)c1ccc(Cl)cc1 (stereo not given),inconclusive: 10.5% [activator],
O=[N+]([O-])c1ccc(O)c2ncccc12,,"inconclusive: 27.6 µM [activator, single point]"
C=C(C(=O)O[C@H]1C/C(C)=C/CC/C(CO)=C/[C@H]2OC(=O)C(=C)[C@H]12)C(O)CO (stereo not given in full),,active: 18.6 µM
C/C=C/c1ccc2oc(-c3ccc(O)c(OC)c3)c(C)c2c1,,"inconclusive: 19 µM [activator, partial curve]"
